B1: LINE1-mini (parent)
chain: GGCAGAGCUCAACACAGCGUGGCAAAGUGGCUGUGGCUAGACUGCC

The source gives no read counts; variants with many changes may rest on few reads.

This data set covers variants of B1. Description: self-cleavage, relative activity (ratio to wild type); higher = more cleavage; in vitro, sequencing; the parent is a self-cleaving ribozyme.
For GGCAGAGCUCAACACAGCGUGUCAGAGUGGCUGUCGCCACACUGCC, the self-cleavage was determined as 0.

Regarding GGCAGAGCUCAACACAGCGUGACAAAGUGGCUGUGUAUAGCCUGCU, the self-cleavage was 0.01.

As to GGCAGAGCUCAACACAGCGUGCCGAAGUGGCUCUGGCUAGACUGCC, the self-cleavage was 0.05.

For the variant GGCAGAGCUCAACACAGCGUGGAAAAGUGGUUGUGGCUAGUCAGCA, the self-cleavage amounted to 0.02.

GGCAGAGCUCAACACAGCGUGGAAAAGUGGCUGUGGCUCAACUGCC: the self-cleavage was 0.12.

On to GGCAGAGCUCAACACAGCGUGUCAAAGUAGCUGUGGCUAGCCUGCC, for which the self-cleavage turned out to be 0.01.

Consider GGCAGAGCUCAACACAGCGUGUCAAAGUGCCUGUAGCUAGACUGCC, for which the self-cleavage was determined as 0.22.

For GGCAGAGCUCAACACAGCGUGACAAAGUGGCAGUCGCUAGACUGCC, the self-cleavage came to 0.13.

Regarding GGCAGAGCUCAACACAGCGUGACAAAGCAGCUGUGGCUAGACUGCC, the self-cleavage came to 0.28.

Consider GGCAGAGCUCAACACAGCGUGCCAAAGUGGCUGUCGCUAGACUCCC, for which the self-cleavage came out at 0.03.

GGCAGAGCUCAACACAGCGUGCAAAAGUGGCUGUGUCUAGACUGCC: the self-cleavage was 0.08.

Consider GGCAGAGCUCAACACAGCGUGACAAAGAGGCUGUAGCUAGACUGCC, for which the self-cleavage was found to be 0.13.

Regarding GGCAGAGCUCAACACAGCGUGUCAAAGUGGCUCUGGCUUGACUGCC, the self-cleavage is 0.04.

As to GGCAGAGCUCAACACAGCGUGCCAAAGUGGCUGUGGCUAAACUCCC, the self-cleavage came to 0.15.

Consider GGCAGAGCUCAACACAGCGUGCCUAAGUGGCUGUGUCGAGACUGCA, for which the self-cleavage turned out to be 0.02.

Regarding GGCAGAGCUCAACACAGCGUGCUAAAGUGGCUUUGGCUAGACUGCG, the self-cleavage is 0.15.

Consider GGCAGAGCUCAACACAGCGUGACAAAGUGGCUGUAGCUAGACUUCC, for which the self-cleavage came out at 0.06.

GGCAGAGCUCAACACAGCGUGUAAAAGUGGCUGUCGGUAGACUGCC: the self-cleavage worked out at 0.09.

As for GGCAGAGCUCAACACAGCGUGUCAAAGUGGAGGUGGCUAGACUGCC, the self-cleavage worked out at 0.05.

On to GGCAGAGCUCAACACAGCGUGUCAACCUGGCUGUGGCUAUACUGCC, for which the self-cleavage was determined as 0.32.

For the variant GGCAGAGCUCAACACAGCGUGGAUAAAUGGCUGUGGCUAGACUGCC, the self-cleavage is 0.96.

Turning to GGCAGAGCUCAACACAGCGUGGAAAAGUGGCUGUGGCUUAACUGCC, the self-cleavage amounted to 0.05.

Take GGCAGAGCUCAACACAGCGUGCCAAAGUGGUUCUGGCUAGCCUGCC: the self-cleavage stood at 0.05.

For the variant GGCAGAGCUCAACACAGCGUGGACAAGUGGCUGUGGCUAUACUGCC, the self-cleavage was 0.27.

As for GGCAGAGCUCAACACAGCGUGUCAAAGUGGCUGUGGCUAUACUACC, the self-cleavage amounted to 0.1.

As to GGCAGAGCUCAACACAGCGUGGAAUAGUGGCUGUGGCUAGACUGGC, the self-cleavage turned out to be 0.15.

For GGCAGAGCUCAACACAGCGUGUCAAAGUGGCUGUGGCUAGAGAGCC, the self-cleavage was 0.

For GGCAGAGCUCAACACAGCGUGCCAAAGAUGCUGUGGCUAGACUGCC, the self-cleavage is 0.68.

GGCAGAGCUCAACACAGCGUGCCAAAGUGGUUGUGGCUAGACUACC: the self-cleavage was determined as 0.08.

As to GGCAGAGCUCAACACAGCGUGACAAAGUGGCUGUGUCUUGAACGCA, the self-cleavage amounted to 0.03.

As to GGCAGAGCUCAACACAGCGUGCCUCAGUGGCUGUGGCUAGACUGCC, the self-cleavage was 0.14.

Take GGCAGAGCUCAACACAGCGUGGAAAACUGGCGGUAGCUAGACUGCC: the self-cleavage turned out to be 0.04.

For GGCAGAGCUCAACACAGCGUGACAAAGCGGCUGGGGCUAGACUGCC, the self-cleavage is 0.09.

As for GGCAGAGCUCAACACAGCGUGGAAAAGUGGGUGAGGCUAGACUGCC, the self-cleavage is 0.

With GGCAGAGCUCAACACAGCGUGUCAAAGUGGCUAUGGCUAGACUGUC, the self-cleavage came out at 0.14.

Turning to GGCAGAGCUCAACACAGCGUGUCAACGAGACUGUGGCUAGACUGCC, the self-cleavage was 0.08.

GGCAGAGCUCAACACAGCGUGCUAAAGCGGCUGUGGCUAGACUGCC: the self-cleavage worked out at 0.31.

Turning to GGCAGAGCUCAACACAGCGUGACAAAGUGGCUGGGGCCAGACUGCC, the self-cleavage is 0.66.

On to GGCAGAGCUCAACACAGCGUGGAAUAGUGGCCGUGGCUAGACCGCC, for which the self-cleavage stood at 0.04.

On to GGCAGAGCUCAACACAGCGUGUCAAAGUGGCUGUGACUAAACUGCC, for which the self-cleavage came out at 0.85.

Take GGCAGAGCUCAACACAGCGUGCAAAAGUGUAUGUGGCUAGACUGCA: the self-cleavage was determined as 0.13.

For GGCAGAGCUCAACACAGCGUGGAAAAGUGGCUGUGGCUAGAGCGCC, the self-cleavage was 0.03.

For the variant GGCAGAGCUCAACACAGCGUGUCAAAGUGGCUUUGGCUACACUGCU, the self-cleavage came to 0.03.

With GGCAGAGCUCAACACAGCGUGGAAAAGUGGGUGUGACUGGACUGCC, the self-cleavage amounted to 0.02.

For GGCAGAGCUCAACACAGCGUGACAAAGUGGCUUUGGGUAGCCUGCC, the self-cleavage is 0.04.

Regarding GGCAGAGCUCAACACAGCGUGCCAAAGUGUCUGUGGCUAGCCUGCC, the self-cleavage is 0.02.

Consider GGCAGAGCUCAACACAGCGUGUCGAAGUGGCUGUGGCUGGACUGCC, for which the self-cleavage came out at 0.09.

Take GGCAGAGCUCAACACAGCGUGUCAGGAUGGCUGUGGCUUGACUGCC: the self-cleavage is 0.6.

With GGCAGAGCUCAACACAGCGUGCCAAAGUGGCUGUGCAUAGGCUGCC, the self-cleavage was found to be 0.03.

With GGCAGAGCUCAACACAGCGUGUCAAAGUGGGUGUGGCUAGACUGGC, the self-cleavage was determined as 0.03.

As to GGCAGAGCUCAACACAGCGUGUCAAAGUGGCUGUGGCUAGACAGUC, the self-cleavage is 0.05.

As for GGCAGAGCUCAACACAGCGUGCUAAAGUGGCUGUGACUAGACUCCC, the self-cleavage is 0.05.

Consider GGCAGAGCUCAACACAGCGUGCCAAAGUGGCUGUGGCUAUACUGCA, for which the self-cleavage was 0.09.

GGCAGAGCUCAACACAGCGUGUCAAAGUGGCUGUUGGUAGACUGCC: the self-cleavage is 0.06.

As to GGCAGAGCUCAACACAGCGUGGACAAUUGGCUAUGGCAAGACUGCC, the self-cleavage was 0.08.

For the variant GGCAGAGCUCAACACAGCGUGGAAAAUUGGCUGUGGAUAGACUGCC, the self-cleavage came to 0.04.

The values are drawn from the RNAGym collection of RNA variant scans (doi:10.7554/elife.90254).
